From the supplement of paper PMC4604168 (melanoma cell lines) come the findings set out here.

Molecules are shown by their SMILES. This is one part of the list. Repeats are few or missing, and single values can be far off.
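Further: cell number obtained by counting DAPI-stained nuclei in high-throughput microscope images with image analysis software, screen run in 1,536-well plates.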

In this experiment the test system is IPC-298. Nature of the experiment: cell count relative to DMSO control; melanoma cells; higher = more viable cells. The note with it: library dose: low library concentration; 72 h.
In turn, `C[C@]1(O)C[C@@H](c2nc(-c3ccc4ccc(-c5ccccc5)nc4c3)c3c(N)nccn32)C1` + CCCS(=O)(=O)Nc1ccc(F)c(C(=O)c2c[nH]c3ncc(Cl)cc23)c1F [PLX4720] (first compound 0.4 µM, partner dose 0.08 µM) yielded a cell count of 89.2%.
The result for `C[C@]1(O)C[C@@H](c2nc(-c3ccc4ccc(-c5ccccc5)nc4c3)c3c(N)nccn32)C1` + C[C@]1(c2nc3c(C(N)=O)cccc3[nH]2)CCCN1 [Veliparib] (first compound 0.4 µM, partner dose 1.4 µM) reads 96.6%; that for `COc1cc([C@@H]2c3cc4c(cc3[C@@H](O[C@@H]3O[C@@H]5CO[C@@H](C)O[C@H]5[C@H](O)[C@H]3O)[C@H]3COC(=O)[C@H]23)OCO4)cc(OC)c1O` [etoposide] + CN(c1ncccc1CNc1nc(Nc2ccc3c(c2)CC(=O)N3)ncc1C(F)(F)F)S(C)(=O)=O [PF562271] (first compound 0.02 µM, partner dose 0.08 µM), 93.2%.
Regarding `C[C@]1(O)C[C@@H](c2nc(-c3ccc4ccc(-c5ccccc5)nc4c3)c3c(N)nccn32)C1` + Clc1ccc(Nc2nnc(Cc3ccncc3)c3ccccc23)cc1 [vatalanib] (first compound 0.4 µM, partner dose 2 µM), the cell count was 91.5%.
Take `COc1cc([C@@H]2c3cc4c(cc3[C@@H](O[C@@H]3O[C@@H]5CO[C@@H](C)O[C@H]5[C@H](O)[C@H]3O)[C@H]3COC(=O)[C@H]23)OCO4)cc(OC)c1O` [etoposide] + O=C(O)[C@@H]1[O][Sb](=[O])([O][Sb]2(=[O])[O][C@H]([C@H](O)CO)[C@H](O)[C@H](C(=O)O)[O]2)[O][C@H]([C@H](O)CO)[C@@H]1O [stibogluconate] (first compound 0.02 µM, partner dose 2 µM): the cell count came to 88.8%.
